# Assay results reported in PubChem BioAssay AID463173 (ICCB-Longwood Screening Facility, Harvard Medical School, 2010).
# The whole screen tested about 52,000 compounds, of which about 1,700 (3.3%) were called active. Rule as the data show it: active = survival mostly below about 52% (no sharp cut-off); inactive = mostly above about 56%. The list shows a part of the results.
# Tested on: Wild type
# Experiment: S. aureus survival, RN4220 and DeltatarO strains – OD600, teichoic acid synthesis inhibitors, primary screen (AID 463173)
# Conditions: S. aureus RN4220 wild type/DeltatarO growth, OD600, 18 h, stronger effect = lower value, screened at 18.75 µg/mL (by protocol)
row,Structure (SMILES),survival
1,CCN(CC)c1nn2c(=O)c(C(=O)NCc3ccc(OC)cc3OC)cnc2s1,inactive: 70%
2,Cc1ccc(-n2nc3ccc(NC(=O)c4oc5ccccc5c4C)cc3n2)cc1,inactive: 62%
3,CCOC(=O)c1[nH]c2ccccc2c1NC(=O)c1ccccc1OCC,inactive: 94%
4,COc1ccccc1CNC(=O)c1ccccc1NC(=O)c1nsc2ccccc12,inactive: 72%
5,O=C(Nc1ccc2c(c1)CCCN2C(=O)c1cccs1)c1cccc(C(F)(F)F)c1,inactive: 74%
6,O=C1COc2ccccc2N1Cc1c(F)cccc1Cl,inactive: 106%
7,Cc1nc2ccc(Br)cn2c1NC(C)(C)C,inactive: 110%
8,Clc1cccc(-n2ncc3c(NC4CCCCC4)ncnc32)c1,inactive: 124%
9,CCOc1ccc(-c2nnc(SCC(=O)NC3CCCC3)nc2-c2ccc(OCC)c(OC)c2)cc1OC,inactive: 78%
10,O=C(Nc1ccccc1F)c1nc(S(=O)(=O)Cc2ccccc2F)ncc1Cl,inactive: 18%
11,CCN(C(=O)c1noc2c1COc1ccc(C)cc1-2)c1cccc(C)c1,inactive: 84%
12,CC(C)(C)OC(=O)N1CCC(c2c(C(=O)NCCN3CCC(Cc4ccccc4)CC3)cnn2-c2cccc(Cl)c2)CC1,inactive: 127%
13,Cc1cccc(N2CCN(C(=O)c3cc(S(=O)(=O)N4CCC(C)CC4)cn3C)CC2)c1C,inactive: 49%
14,Cc1cccc(N2CCCC2=Nc2ccc(Br)cc2C#N)c1,inactive: 116%
15,O=C(NCCCN1CCN(c2ccccc2)CC1)c1nnc(Cc2c(F)cccc2Cl)o1,inactive: 77%
16,CCCNC(=O)c1ccc2c(c1)N=C(C)c1c(C)ccc(C)c1S2,inactive: 83%
17,O=C(NCc1ccc(Cl)cc1)C(=O)NCC(c1cccs1)S(=O)(=O)c1ccc(Cl)cc1 (centres undefined),inactive: 58%
18,CCOC(=O)C1CCN(C(=O)c2cc3ccc4cccnc4c3[nH]2)CC1,inactive: 88%
19,CCOc1ccc(CCNC(=O)C2CCN(c3ncnc4c3nc3n4CCCCC3)CC2)cc1,inactive: 119%
20,CC1CCCC(C)N1C(=O)CSc1nc2ccccc2n1CC(=O)NC1CCCC1 (centres undefined),inactive: 104%
21,Cc1ccccc1-c1noc(-c2ccccc2OCC(=O)Nc2cccc([N+](=O)[O-])c2)n1,inactive: 92%
22,Cc1cccc(C)c1NC(=O)Cn1nnc(S(=O)(=O)c2ccccc2)c1N,inactive: 90%
23,O=C1CN(C(=O)c2ccc(S(=O)(=O)N3CCCC3)cc2)C(c2ccccc2)c2cc(F)ccc2N1 (centres undefined),inactive: 90%

row,Structure (SMILES),survival
1,N#Cc1c(-c2ccccc2)cc(-c2ccccc2)nc1SCC(O)CS(=O)(=O)Cc1ccc(Cl)cc1 (centres undefined),inactive: 80%
2,Cn1nnc2cc(C(=O)NCc3ccco3)ccc21,inactive: 104%
3,Cc1cc(NC(=O)Cc2ccccc2)cc(-c2nc3ccccc3o2)c1O,inactive: 82%
4,CCn1cc(/C=C(\NC(=O)c2cc(OC)c(OC)c(OC)c2)C(=O)NCCCn2ccnc2)c2ccccc21,inactive: 103%
5,CC(C)CC(=O)Nc1cccc(-c2nnc(-c3cccc(NC(=O)CC(C)C)c3)o2)c1,inactive: 113%
6,CN(C)c1ccc(Nc2ncnc3c2c(-c2ccccc2)cn3-c2cccc(Cl)c2)cc1,inactive: 136%
7,CCOC(=O)c1cc2c(=O)n3ccccc3nc2n(C(C)C)c1=NC(=O)C(C)(C)Oc1ccc(Cl)cc1,inactive: 64%
8,Cc1c(C(=O)NCCN(C)C)oc2c1-c1nn(Cc3cccc(Cl)c3)cc1CC2,inactive: 89%
9,Cc1nc(-c2ccc(F)cc2)sc1CCNC(=O)Cc1ccc(F)cc1,inactive: 71%
10,COC(=O)c1ccccc1NS(=O)(=O)c1cc2c(cc1C)N(C)CCO2,inactive: 86%
11,CC(=O)Nc1ccccc1-c1n[nH]c(=S)[nH]c1=O,inactive: 112%
12,Cc1cccc(S(=O)(=O)c2cn(Cc3ccccc3)c3cc(N4CCCCC4)c(F)cc3c2=O)c1,inactive: 99%
13,CCN(Cc1nc(-c2ccc(OC)c(OC)c2)no1)S(=O)(=O)c1ccc(OC)cc1,inactive: 73%
14,COc1ccc(-c2nc3sc(CCNC(=O)c4ccc(Br)o4)c(C)n3n2)cc1,inactive: 73%
15,O=C1C(CO)NC(=S)N1c1ccccc1 (centres undefined),inactive: 121%
16,CCC1CCCCN1c1ncnc2c1nnn2Cc1ccccc1Cl (centres undefined),inactive: 105%
17,CCN(CC)C(=O)c1c(-c2ccccc2)c(-c2ccccc2)nn(CC)c1=O,inactive: 118%
18,COc1ccccc1N1CCN(C(=O)CN2C(=O)COc3ccc(S(=O)(=O)N4CCOCC4)cc32)CC1,inactive: 98%
19,COc1ccc(CCC(=O)NC2CC(=O)N(c3ccc(F)cc3)C2)cc1 (centres undefined),inactive: 83%
20,Cc1cccc(CCNCc2cc3cc4c(cc3[nH]c2=O)OCO4)c1,inactive: 106%
21,O=C(CSc1nc(=O)n(Cc2ccccn2)c2c1CCC2)Nc1ccccc1,inactive: 80%
22,CC(C)(C)OC(=O)N1CCC(c2c(C(=O)NC3CCCCC3)cnn2-c2ccc(F)cc2F)CC1,inactive: 60%
23,COc1cc(CNC(=O)c2cnc(SC)nc2-c2ccccc2)cc(OC)c1OC,inactive: 49%

row,Structure (SMILES),survival
1,Cc1ccc(S(=O)(=O)C(CNS(=O)(=O)c2cc(F)ccc2F)c2cccs2)cc1 (centres undefined),inactive: 75%
2,CSc1ccccc1NC(=O)CCS(=O)(=O)c1nc(-c2ccc3c(c2)OCO3)cc(C(F)(F)F)n1,inactive: 139%
3,CN(C)S(=O)(=O)c1ccc(S(=O)(=O)N2CCC(c3nc4ccccc4s3)CC2)cc1,inactive: 95%
4,CCN1CCN(c2oc(-c3ccc(COc4ccccc4C)o3)nc2C#N)CC1,inactive: 112%
5,O=C(O)c1ccccc1C(=O)Nc1ccc(Br)c2cccnc12,inactive: 62%
6,COc1cccc(CNC(=O)Cn2ncn3nc(-c4cccs4)cc3c2=O)c1,inactive: 89%
7,CCOC(=O)Cc1csc(NC(=O)CSc2nc3c(C)c(C)ccc3cc2C#N)n1,inactive: 103%
8,COc1ccc(Cn2ccc3nc(C)c(C(=O)Nc4cccc(SC)c4)cc3c2=O)cc1,inactive: 69%
9,Oc1c(C(Nc2ccccn2)c2ccccc2F)ccc2cccnc12 (centres undefined),inactive: 135%
10,Cc1ccc(NC(=O)C2CCN(S(=O)(=O)c3cccc4nsnc34)CC2)cc1F,inactive: 91%
11,CCCNC(=O)c1ccc2c(c1)nc1n2CCCCC1,inactive: 78%
12,Cc1noc(C)c1S(=O)(=O)N(CC(=O)Nc1ccc(F)cc1F)c1ccc(C(C)C)cc1,inactive: 79%
13,CC1Cc2ccccc2N1C(=O)c1cnsn1 (centres undefined),inactive: 94%
14,CC1CN(C(=O)N(C)C)CCN1C(=O)N(C)C (centres undefined),inactive: 98%
15,COc1ccc(NC(=O)C(=O)NCCc2csc3nc(-c4ccccc4F)nn23)cc1OC,inactive: 63%
16,O=C(NC12CCC(O)C(SC1)/C2=N/O)c1ccccc1 (centres undefined),inactive: 108%
17,O=C1C2C3C=CC(C3)C2C(=O)N1CCN1C(=O)C2C3C=CC(C3)C2C1=O (centres undefined),inactive: 113%
18,CC(=O)c1ccc(NS(=O)(=O)c2ccc3c(c2)NC(=O)CCS3)cc1,inactive: 82%
19,CCn1cc2nc(SCc3ccccc3Cl)n(Cc3ccc(OC)cc3)c(=O)c2n1,inactive: 85%
20,COc1cccc(CNC(=O)c2ccc(-c3nc(CSc4ccccc4)c(C)o3)cc2)c1,inactive: 51%
21,COc1ccc(C(Nc2ccccn2)c2ccc3ccc(C)nc3c2O)cc1C (centres undefined),inactive: 62%
22,CC(=O)Nc1ccccc1-c1nc2ccccc2n(C(C)C(=O)Nc2ccccc2C(F)(F)F)c1=O (centres undefined),inactive: 102%
23,COc1ccc(-c2c(C)c3ccc(O)c(CN4CCC(C)CC4)c3oc2=O)cc1OC,inactive: 73%

row,Structure (SMILES),survival
1,CC(=O)Nc1ccc(S(=O)(=O)n2cnc3cc(C)c(C)cc32)cc1,inactive: 112%
2,CCCN(CCC)CCCNC(=O)c1cc2c(=O)n(C)c3ccccc3c2s1,inactive: 130%
3,Cc1cccc(N2CCN(C3=C(c4ccccc4)C(=O)c4ccccc43)CC2)c1C,inactive: 71%
4,COc1cc(OC)c(OC)cc1/C=C/c1nc2cc3ccccc3cc2c(=O)n1-c1ccccc1Br,inactive: 68%
5,Cc1ccc(CNC(=O)c2cc(=O)c3cc(C)ccc3o2)cc1,inactive: 85%
6,CN1CCN(c2ncnc3c2cnn3-c2cccc(Cl)c2)CC1,inactive: 78%
7,COc1cc2c(c(OC)c1)C(c1cccc(F)c1F)CC(=O)N2 (centres undefined),inactive: 82%
8,CC(=O)N/C(N)=N\c1nc(C)c2ccc(C)cc2n1,inactive: 110%
9,CCOC(=O)c1c(NC(=O)c2cc(=O)c3cc(C)ccc3o2)sc2c1CCCC2,inactive: 88%
10,COc1ccc(Cl)cc1NC(=O)CSC1=Nc2ccccc2C2=NC(CCC(=O)NCc3ccco3)C(=O)N12 (centres undefined),inactive: 83%
11,Cc1ccc(Cn2c(CCNC(=O)c3cccc(C)c3)nc3ccccc32)cc1,inactive: 68%
12,Cc1ccc(S(=O)(=O)N2CCN(Cc3ccccc3Cl)CC2)cc1,active: 19%
13,Cc1cccc(NC(=O)CN2C(=O)C3(SCC(=O)N3c3ccccc3)c3ccccc32)c1 (centres undefined),inactive: 124%
14,Cc1ccc(Cn2c(C(=O)O)c(CNCc3ccc(C)o3)c3ccc(C)cc32)cc1,inactive: 65%
15,N#Cc1c(NC(=O)c2cnn3c(C(F)(F)F)cc(-c4ccco4)nc23)sc2c1CCCC2,inactive: 100%
16,O=C(NCCc1ccccc1)c1ccc2c(c1)N(Cc1ccc(F)cc1)C(=O)CS2,inactive: 88%
17,O=C(NCCC1=CCCCC1)c1ccc2c(c1)sc1nc(-c3ccc(F)cc3)cn12,inactive: 71%
18,CC(C)Cn1cc(NC(=O)NCc2cccc(Cl)c2)c2ccccc2c1=O,inactive: 92%
19,O=C(c1cc2sccc2n1Cc1ccc(F)cc1)N1CCc2ccccc2C1,inactive: 129%
20,COc1ccc(NC(=O)c2cccc(N3CCCS3(=O)=O)c2)c(OC)c1,inactive: 68%
